PubChem BioAssay AID1631 (National Center for Advancing Translational Sciences (NCATS), 2009)
Screen size: about 260,000 compounds; about 890 (0.34%) were called active. This list was built around the results that the source calls inconclusive (neither active nor inactive); the mix of calls is not that of the screen. Calls follow the shape of the dose curve; as a rule, active = well fitted activation curve with a large enough effect; inconclusive = small, poorly fitted or top-dose-only effect; inactive = no such curve, though single readings can be large or run the other way. Where the call is inconclusive, the potency comes from a doubtful curve fit.

target: Pyruvate kinase PKM (Homo sapiens) (UniProt P14618); assay: qHTS Assay for Activators of Human Muscle isoform 2 Pyruvate Kinase; conditions: purified PKM2, Kinase-Glo ATP luminescence; Potency: activation; activation: at 57.5 µM (top of the series), 0% is enzyme alone, no compound; also: nearly all actives have a fitted effect of over 55% in size
Method in brief: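 Kinase-Glo luminescence reports ATP generated from ADP (0.1 mM) and PEP (0.5 mM) by purified hPK-M2 after 1 h at room temperature, pH 7.2 imidazole buffer; intermediate enzyme activity allows detecting inhibitors and activators.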
% is scaled to controls: 0 for no effect and ±100 for the full control effect; potency is read from the fitted curve at half-maximal effect; tags tell the direction and shape of the fitted curve.

Chain of UniProt P14618 (P14618 whole entry, looked up, canonical isoform): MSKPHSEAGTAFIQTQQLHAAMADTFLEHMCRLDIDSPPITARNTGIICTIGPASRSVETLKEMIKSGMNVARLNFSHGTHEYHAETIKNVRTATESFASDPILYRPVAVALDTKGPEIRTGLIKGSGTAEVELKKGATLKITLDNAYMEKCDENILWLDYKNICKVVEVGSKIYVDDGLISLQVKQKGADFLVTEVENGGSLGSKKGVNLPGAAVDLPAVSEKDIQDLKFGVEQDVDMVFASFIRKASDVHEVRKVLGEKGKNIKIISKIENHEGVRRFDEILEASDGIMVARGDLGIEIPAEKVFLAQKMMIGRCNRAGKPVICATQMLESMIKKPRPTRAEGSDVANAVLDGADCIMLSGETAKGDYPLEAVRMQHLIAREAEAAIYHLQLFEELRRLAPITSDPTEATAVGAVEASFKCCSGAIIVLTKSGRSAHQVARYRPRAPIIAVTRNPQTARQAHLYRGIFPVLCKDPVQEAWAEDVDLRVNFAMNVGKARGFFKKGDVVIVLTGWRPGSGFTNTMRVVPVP

Potency, inconclusive:
O=S(=O)(Nc1ccc2ccccc2n1)c1ccccc1Cl 17.8 µM [rising, partial curve]
CC(C)C(=O)Nc1cccc(C(=O)Nc2nnc(C(C)C)s2)c1 0.794 µM [rising, single point]
N#CCc1nn2c3c(cnc2c1C#N)C(=O)CCC3 20 µM [rising, single point]
O=C(O)c1ccc(N/N=C/C2=C(N3CCOCC3)C(=C\c3ccccc3)/CC2)cc1 31.6 µM [rising, single point]
Cc1sc(NC(=O)CSc2nnc3scc(-c4ccccc4)n23)c(C#N)c1C 39.8 µM [rising, single point]
CCNc1ccc(Br)cc(C(=O)/C=C/c2c(Cl)cccc2Cl)c1=O 14.1 µM [rising, partial curve]
CSc1ncc2ncn(C3OC(CO)C(O)C3O)c2n1 (stereo not given) 39.8 µM [rising, single point]
COc1cccc(COCCN2CCN(S(=O)(=O)c3ccc(C)cc3)CCC2=O)c1 14.1 µM [rising, partial curve]
COc1cccc(CN(C)Cc2nc(Cc3ccccc3Cl)no2)c1 35.5 µM [rising, single point]
N#Cc1nc(Cc2ccccc2)oc1NCCc1ccccc1 4.47 µM [rising, partial curve, poor fit]
C/C=C\C=C/C(=O)Nc1cccc(C2=NOC3(C2)C[C@@H](C(N)=O)N(C(=O)c2ccccc2)C3)c1 (stereo not given in full) 7.94 µM [rising, partial curve]
Cc1cc(NC(=O)CN2C(=O)CC(c3ccco3)Sc3ccccc32)no1 (stereo not given) 31.6 µM [rising, single point]
COc1cc(-c2noc(CCC(=O)Nc3cccnc3)n2)cc(OC)c1OC 28.2 µM [rising, partial curve]
CCOC(=O)N1CCN(S(=O)(=O)c2cccs2)CC1 28.2 µM [rising, single point]
COc1ccc(Cc2nnc3c4cnn(C)c4ncn23)cc1 11.2 µM [rising, partial curve]
O=C(c1ccco1)N1CCN(C(=O)c2snc3ccc(Cl)cc23)CC1 39.8 µM [rising, single point]
COc1cccc(-n2nnc3c(=O)n(CC(=O)Nc4cc(C)on4)cnc32)c1 39.8 µM [rising, single point]
O=C(O)/C(=C\c1ccc(-c2ccc(F)cc2)o1)c1ccccc1 28.2 µM [rising, single point]
COc1ccc(OC)c(NC(=O)COC(=O)c2cc3c(s2)CCC3)c1 39.8 µM [rising, single point]
Cc1ccc2cc(CN(Cc3ccco3)C(=O)c3cccs3)c(=O)[nH]c2c1 22.4 µM [rising, partial curve]
Cc1ccc(C2=C/C(=C/c3cccnc3)C(=O)O2)c(C)c1 17.8 µM [rising, partial curve]
O=c1c(-c2c(O)cc(O)c3c(=O)cc(-c4ccc(O)cc4)oc23)c(-c2ccc(O)cc2)oc2cc(O)cc(O)c12 7.94 µM [rising, partial curve]
COCCCn1c(SCC(=O)Nc2ccc(NC(=O)c3ccco3)c(OC)c2)nc2ccccc2c1=O 0.708 µM [rising, single point]
O=C(CC(c1ccc(F)cc1)c1ccco1)Nc1nccs1 (stereo not given) 20 µM [rising, partial curve]
Nc1cccc(S(=O)(=O)Nc2ccc(Br)cc2)c1 25.1 µM [rising, partial curve]
CCOC(=O)C1=C(C)SC2=NS(=O)(=O)CCN21 31.6 µM [rising, single point]
Cn1c(=O)oc2cc(S(=O)(=O)N3CCCC3)ccc21 25.1 µM [rising, single point]
O=C(CSc1nnc(Cc2ccccc2)o1)Nc1ccccc1 39.8 µM [rising, single point]
CC(c1ccco1)N(C(=O)c1ccccc1NS(=O)(=O)c1cc([N+](=O)[O-])ccc1Cl)c1ccccn1 (stereo not given) 3.55 µM [rising, single point]
CC(=O)Oc1ccc(OC(C)=O)c(SCCCCCCl)c1 20 µM [rising, single point]
CC(C)c1nc(SCC(=O)Nc2ccc([N+](=O)[O-])cc2Br)n[nH]1 2.82 µM [rising, partial curve]
Cc1ccc(S(=O)(=O)NCCc2ccncc2)cc1C 28.2 µM [rising, single point]
O=C(O)c1cccnc1Sc1ccccc1Cl 39.8 µM [rising, single point]
O=C(Cn1nc(CNc2ccc(Cl)cc2)[n+]2c1CCCCC2)c1ccc(Cl)cc1 39.8 µM [rising, single point]
Cc1cc(C)n(C(=O)c2cc3c(s2)CCCC3)n1 0.891 µM [rising, full curve, poor fit]
O=S(=O)(Nc1nc2c(s1)CCCC2)c1ccc(F)cc1 12.6 µM [rising, partial curve]
Cc1sc(NC(=O)c2ccccc2)c(C(c2ccccn2)N2CCN(CCO)CC2)c1C (stereo not given) 0.0631 µM [rising, full curve]
O=C(O)CCC(=O)Nc1ccc(-c2nnc(-c3ccco3)o2)cc1 39.8 µM [rising, single point]
Cc1c(C(=O)OC2CCCC2)[nH]c2c1C(=O)CC(c1ccco1)C2 (stereo not given) 14.1 µM [rising, partial curve]
C/C(=N\Nc1ccc(S(N)(=O)=O)cc1[N+](=O)[O-])c1ccco1 6.31 µM [rising, partial curve]

Potency, inactive:
CCCCN(Cc1ccco1)C(=O)Cn1ncc2c(=O)oc3ccc(C)cc3c21
CC(C)(C)S(=O)(=O)c1cnc(N2CCCCC2)nc1N
CN1c2ccccc2C(O)=C(C(=S)Nc2ccccc2)S1(=O)=O
COc1cc2cc(C(c3nnnn3C(C)(C)C)N3CCc4ccccc43)c(=O)[nH]c2cc1OC (stereo not given)
COc1ccc(-c2nc(-c3ccccc3)nc(N3CCN(C)CC3)c2C#N)cc1
O=C(Cc1csc(N2CCOCC2)n1)N/N=C/c1ccc(Cl)cc1Cl
CC1CCN(CCCNC(=O)C2CCN(S(=O)(=O)N3CCC4(CC3)OCCO4)CC2)CC1
Cc1ccc(N=C2NC(=O)S/C2=C\c2ccco2)cc1
O=C(CN1CCOCC1)n1c2ccccc2c2ccccc21
Cc1ccc(NC(=S)NC2CCCC2)c(C)c1
CCOc1ccc(-c2csc(/C(C#N)=C\c3ccc(O)c([N+](=O)[O-])c3)n2)cc1
O=C(NCC1CC1)[C@H]1C[C@@H]1[C@H](NP(=O)(c1ccccc1)c1ccccc1)c1ccccc1
CCOC(=O)CC1C(=O)NCCN1C(=O)c1cccc(C(F)(F)F)c1 (stereo not given)
COc1ccc2ccccc2c1/C=N/NC(=S)Nc1cc(S(=O)(=O)N2CCOCC2)ccc1N1CCOCC1
COc1ccc(NC(=O)c2c[nH]n3c(=O)cc(C4CCN(C(=O)OC(C)(C)C)CC4)nc23)cc1Cl
O=C(c1ccccc1-c1ncc[nH]1)N1CCc2c([nH]c3ccccc23)C1c1ccccn1 (stereo not given)
COc1ccccc1C(=O)NCCC(=O)NCC(c1ccccc1)N(C)C (stereo not given)
O=[N+]([O-])c1cc(CN2CCN(c3ccccc3)CC2)c(O)c2ncccc12
CCn1cc(C(=O)NC(C)C23CC4CC(CC(C4)C2)C3)cn1 (stereo not given)
COCCNC(=O)c1cc(-c2ccccc2OC)on1
N#Cc1c(SCC(=O)Nc2nccs2)nc2c(c1-c1ccco1)CCCC2
COc1cccc(/C=N/Nc2ncnc(N)c2[N+](=O)[O-])c1OC
COc1ccc(C(=O)N/N=C/c2ccc(OC)c(COc3ccc(F)cc3)c2)cc1
COc1ccc(C(=O)/C=C/c2ccsc2)cc1CSCC(=O)O
CC(C)[n+]1ccn(C2=C([O-])c3ccccc3C(=O)/C2=N\S(=O)(=O)c2ccccc2)c1
COC(=O)c1ccc(C(=O)OC)c(NC(=O)COC(=O)C2CCC(C(C)(C)C)CC2)c1 (stereo not given)
COc1ccc(CCNC(=O)c2ccc(S(=O)(=O)N(C)c3ccccc3)cc2)cc1OC

Potency, active:
Cc1cc(C)c(C#N)c(SCCS(=O)(=O)c2ccc(Cl)cc2)n1 20 µM
CCS(=O)(=O)Nc1ccc(C2=NN(C(=O)c3ccco3)C(c3ccc(C)cc3)C2)cc1 (stereo not given) 7.94 µM
Cn1c(=O)oc2cc(S(=O)(=O)Nc3ccccc3)ccc21 2.51 µM
Cc1ccn(S(=O)(=O)c2ccc3oc(=O)ccc3c2)n1 10 µM
CC(=O)N(c1ccccc1)C1SC(=O)N(c2ccccc2)C1=O (stereo not given) 0.562 µM
COc1ccc(S(=O)(=O)Nc2nc3c(s2)CCCC3)cc1 5.01 µM
CC(=O)Oc1ccc(S(=O)(=O)c2ccc(OC(C)=O)cc2)cc1 14.1 µM

activation, inactive:
CN1C(C(=O)NCc2cccs2)=CC(c2ccc(F)cc2)=NS1(=O)=O 6.38% [at 0.46 µM, 0% is enzyme alone, no compound]
